# Experimental data: the supplement of paper PMC7826260
# This is one part of the list. Cleavage of a single-stranded DNA pool by Rep nickase domains was read by sequencing (3 µM enzyme, 1 h, 37 °C); shown is the middle of each 90-letter strand. A value is the log2 ratio of uncut reads to the pool without enzyme; the lower, the more was cut; hits are not called. Shares of all reads are compared; where an enzyme cuts many sequences, the uncut ones exceed 0.
# Columns and labels:
# Experiment in all cases: uncleaved DNA left, log2 of reads against the no-enzyme library (log2 ratio); higher = less cleavage (more negative = more Rep cleavage of the k-mer); sequences stand for … in CTCGTCCG…ACCGGAGA
# [1] = tested on: T1, Rep nickase domain of Muscovy duck circovirus
# T1 sequence (residues 1-111 of Rep, tag left off): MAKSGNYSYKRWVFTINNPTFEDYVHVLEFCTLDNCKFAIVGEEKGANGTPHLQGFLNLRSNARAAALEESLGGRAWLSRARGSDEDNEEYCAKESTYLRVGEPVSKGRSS
# Protocol: (§1)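 A pool of 90-nt single-stranded DNAs with seven random bases just before the constant AC of the nick site (name = the seven bases) was cut by 3 µM recombinant His6-SUMO-tagged Rep nickase domain (300 nM DNA, 50 mM HEPES pH 8.0, 50 mM NaCl, 1 mM MnCl2, 1 h, 37 °C, three replicates). Uncut DNA was amplified and sequenced.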
# [2] = tested on: T2, Rep nickase domain of banana bunchy top virus
# T2 sequence (residues 1-94 of Rep, tag left off): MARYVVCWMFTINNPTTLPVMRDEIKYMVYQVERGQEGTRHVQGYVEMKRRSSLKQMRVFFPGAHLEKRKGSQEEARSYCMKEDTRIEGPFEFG
# Protocol: as §1
# [3] = tested on: T3, Rep nickase domain of cabbage leaf curl virus
# T3 sequence (residues 1-116 of Rep, tag left off): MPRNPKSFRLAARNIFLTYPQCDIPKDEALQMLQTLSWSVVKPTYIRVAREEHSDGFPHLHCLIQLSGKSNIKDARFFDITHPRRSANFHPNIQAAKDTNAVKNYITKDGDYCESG
# Protocol: as §1
# [4] = tested on: T4, Rep nickase domain of chickpea chlorotic dwarf virus
# T4 sequence (residues 1-124 of Rep, tag left off): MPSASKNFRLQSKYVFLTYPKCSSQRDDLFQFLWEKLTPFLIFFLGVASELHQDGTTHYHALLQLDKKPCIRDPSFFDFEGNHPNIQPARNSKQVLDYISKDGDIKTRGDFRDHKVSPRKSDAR
# Protocol: as §1
# [5] = tested on: T5, Rep nickase domain of faba bean necrotic yellows virus
# T5 sequence (residues 1-98 of Rep, tag left off): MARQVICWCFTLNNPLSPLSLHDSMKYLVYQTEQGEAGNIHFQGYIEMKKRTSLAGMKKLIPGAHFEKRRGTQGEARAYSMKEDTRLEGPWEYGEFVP
# Protocol: as §1
# [6] = tested on: T6, Rep nickase domain of maize striate mosaic virus
# T6 sequence (residues 1-117 of Rep, tag left off): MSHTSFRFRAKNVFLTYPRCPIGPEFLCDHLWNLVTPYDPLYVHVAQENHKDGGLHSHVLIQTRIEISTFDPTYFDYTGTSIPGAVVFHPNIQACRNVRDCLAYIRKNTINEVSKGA
# Protocol: as §1
# [7] = tested on: T7, Rep nickase domain of porcine circovirus 2
# T7 sequence (residues 2-116 of Rep, tag left off): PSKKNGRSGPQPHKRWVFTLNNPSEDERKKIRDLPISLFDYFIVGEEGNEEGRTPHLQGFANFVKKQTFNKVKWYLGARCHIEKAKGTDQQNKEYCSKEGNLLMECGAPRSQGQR
# Protocol: as §1
# [8] = tested on: T8, Rep nickase domain of tomato golden mosaic virus
# T8 sequence (residues 1-124 of Rep, tag left off): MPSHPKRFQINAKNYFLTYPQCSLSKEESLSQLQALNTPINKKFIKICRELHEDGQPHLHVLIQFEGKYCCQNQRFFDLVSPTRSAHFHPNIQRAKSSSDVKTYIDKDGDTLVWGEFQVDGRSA
# Protocol: as §1
# [9] = tested on: T9, Rep nickase domain of tomato yellow leaf curl virus
# T9 sequence (residues 1-136 of Rep, tag left off): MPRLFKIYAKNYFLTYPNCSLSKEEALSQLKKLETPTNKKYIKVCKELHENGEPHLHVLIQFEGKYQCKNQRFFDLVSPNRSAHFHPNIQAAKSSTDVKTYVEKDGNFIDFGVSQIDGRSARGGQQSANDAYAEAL
# Protocol: as §1
# [10] = tested on: T10, Rep nickase domain of wheat dwarf virus
# T10 sequence (residues 1-137 of Rep, tag left off): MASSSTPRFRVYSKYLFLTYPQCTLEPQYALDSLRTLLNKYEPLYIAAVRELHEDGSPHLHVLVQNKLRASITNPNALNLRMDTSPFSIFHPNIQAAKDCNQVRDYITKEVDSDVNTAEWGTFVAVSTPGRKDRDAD
# Protocol: as §1
Sequence,uncleaved DNA left (log2) [1],uncleaved DNA left (log2) [2],uncleaved DNA left (log2) [3],uncleaved DNA left (log2) [4],uncleaved DNA left (log2) [5],uncleaved DNA left (log2) [6],uncleaved DNA left (log2) [7],uncleaved DNA left (log2) [8],uncleaved DNA left (log2) [9],uncleaved DNA left (log2) [10]
AACTGCA,-0.175,-0.0869,-0.644,-0.926,-0.0634,-0.962,-2.66,-0.0601,0.0583,-0.0665
ACTCCGG,0.000128,0.0188,-0.061,-0.025,-0.0345,-0.499,0.086,0.108,-0.0847,-0.0441
TTTACTC,-0.05,-0.0611,0.0668,-2.03,-0.0797,-0.161,-0.0355,-0.0973,-0.0333,-0.0678
AGCTCAT,0.0366,0.0596,0.21,0.151,0.076,0.429,-0.865,-0.0334,0.0676,0.117
TGAGGAA,-0.0666,-0.0502,0.275,1.25,0.106,1.58,0.0822,-0.0206,-0.0933,-0.0282
GACCGAA,0.1,0.0233,0.0973,0.306,-0.0932,0.342,-0.0831,0.037,0.0145,-0.0203
TTGGATG,-0.172,-0.195,-0.387,-0.281,-0.111,-0.49,-0.0399,-0.152,-0.1,-0.194
CGAAACC,-0.0141,-0.0643,0.0137,-0.64,-0.0326,-0.522,-0.489,-0.134,0.0143,0.0713
CCGTTGC,-0.0808,-0.0445,-0.692,0.0182,-0.103,-0.738,0.0777,-0.122,-0.1,-0.172
TCTGAGC,0.113,-0.0548,-0.101,-0.0699,0.106,-0.481,-0.02,0.00123,-0.0667,0.0782
TTAGAGC,0.0118,-0.0637,-0.0582,-0.316,-0.0367,-0.871,0.204,-0.0398,-0.121,-0.0128
CACCGGC,-0.117,-0.0842,0.0626,-0.103,-0.0992,-0.749,0.0662,-0.0795,-0.123,-0.0392
GCGACGT,0.0149,0.0416,0.174,0.887,-0.054,1.69,0.0646,0.136,-0.0365,0.0657
TCCCCCC,-0.22,-0.0388,0.0729,-0.298,-0.0256,-0.357,-0.517,-0.305,-0.192,-0.123
ATGGTGC,0.0162,-0.0704,-0.546,-0.457,-0.101,-0.869,0.117,0.0206,0.0172,-0.0796
AATCTCG,-0.0253,-0.0157,-1.04,-0.562,-0.0283,-1.32,0.107,-0.0598,-0.0208,-0.0785
GTACCCG,-0.0935,-0.0815,-0.634,-0.879,0.0793,-0.785,-0.805,-0.00623,-0.0385,-0.0417
TACTTAG,0.0748,-0.0194,-0.777,-0.93,-0.0874,-1.32,0.0473,-0.0624,-0.0175,-0.121
GAAGTAG,0.1,-0.000363,-0.42,-0.433,0.154,-0.835,0.146,0.0947,0.107,-0.0312
AGTAAGG,0.144,0.0511,0.224,0.968,0.134,0.801,0.267,0.0866,-0.029,0.101

Sequence,uncleaved DNA left (log2) [1],uncleaved DNA left (log2) [2],uncleaved DNA left (log2) [3],uncleaved DNA left (log2) [4],uncleaved DNA left (log2) [5],uncleaved DNA left (log2) [6],uncleaved DNA left (log2) [7],uncleaved DNA left (log2) [8],uncleaved DNA left (log2) [9],uncleaved DNA left (log2) [10]
CATCTTA,-0.122,0.031,-0.23,-2.05,-0.0554,-0.627,-0.165,-0.0186,0.0132,-0.0821
GACGCGC,-0.167,-0.168,-0.682,-0.236,-0.0571,-0.892,0.0366,-0.0988,-0.0823,-0.317
ATTAGAA,-0.0517,-0.0216,-0.0446,-0.0842,0.00643,-0.755,-0.111,-0.0139,0.00725,-0.0471
CGAGAAC,0.012,-0.0888,0.0614,0.13,-0.0129,0.00677,-0.156,-0.136,0.000765,0.00622
AGGAGGG,0.0871,-0.0582,-0.0923,0.0792,0.057,-0.319,0.183,0.0743,0.0711,-0.0393
CGAGGTG,-0.0436,-0.13,-0.258,0.0712,-0.0504,-0.0792,0.0134,0.00274,0.00417,-0.125
ACGGGCG,0.0727,0.046,-0.485,0.76,0.00394,0.168,0.186,0.0375,0.15,-0.0141
ACGCCGA,-0.209,-0.085,-0.349,-0.271,-0.0656,-0.967,0.102,-0.0335,-0.227,-0.136
TATTATT,-3.89,-3.85,-3.86,-4.07,-3.75,-2.8,-4.18,-3.64,-0.0317,-4.07
TCGGTCC,0.119,0.136,0.322,0.36,0.00979,0.334,0.14,-0.039,0.116,0.19
AGAGCGT,0.103,-0.0019,-0.303,-0.308,0.0636,-0.656,0.0607,0.205,0.168,0.0444
ATAGGGA,0.112,0.0941,0.342,1.05,0.0893,0.913,0.112,0.17,-0.107,0.122
AAAACGG,0.0637,0.0581,0.481,1.32,0.0858,1.31,0.162,0.208,-0.0528,0.122
CGGGGTG,0.109,-0.066,-0.0706,-0.061,0.0859,0.0528,0.161,0.0616,0.0361,-0.0932
AACTTGT,-1.29,-0.462,-0.378,-1.13,-0.0955,-0.992,-3.55,-0.118,0.0397,-0.0747
GTGTGCC,0.0218,0.108,0.288,0.841,-0.0477,1.77,0.116,0.12,0.0152,0.111
ACACCTT,0.112,0.0246,-0.121,-2.15,-0.0896,-0.388,-0.167,0.0751,-0.0506,-0.0495
TCGACTA,0.0105,-0.0285,0.0275,0.577,0.0346,1.44,-0.014,-0.0763,-0.0185,0.0368
TGGGAGT,0.206,0.143,0.815,1.73,-0.108,2.06,0.241,0.0359,0.0496,0.212
AGTTACC,-0.0195,-0.0795,0.0274,-1.38,-0.0824,0.0917,-0.621,-0.118,-0.125,-0.0216

Sequence,uncleaved DNA left (log2) [1],uncleaved DNA left (log2) [2],uncleaved DNA left (log2) [3],uncleaved DNA left (log2) [4],uncleaved DNA left (log2) [5],uncleaved DNA left (log2) [6],uncleaved DNA left (log2) [7],uncleaved DNA left (log2) [8],uncleaved DNA left (log2) [9],uncleaved DNA left (log2) [10]
GGTTCTA,-0.109,0.0136,0.355,0.962,-0.131,1.73,-0.0361,-0.049,0.00594,0.0612
GTGCGTC,-0.0452,-0.155,0.162,0.421,-0.105,0.475,0.113,0.0687,0.0327,-0.0648
AAGATCC,0.0676,0.0976,0.128,-0.0813,-0.0371,0.197,0.0039,0.00708,-0.0649,0.0502
CGCACGT,-0.000109,0.0612,0.0937,0.224,0.0103,0.193,0.139,-0.095,0.0519,0.126
ACTGTCG,0.0441,0.0752,-0.64,0.527,0.0435,-0.393,0.228,0.0284,0.0672,-0.0205
GCAGAAA,0.0464,0.133,0.244,0.53,0.0415,0.0964,0.229,0.158,0.0237,0.0667
GAACCAG,-0.207,-0.0507,-0.273,-0.568,-0.071,-0.743,-0.278,-0.118,0.0219,-0.0569
CCATTTG,0.121,-0.0804,-0.927,-0.161,0.0869,-0.916,0.261,0.0734,0.122,0.0257
GCGATAG,0.0373,-0.00548,-0.0379,0.495,0.023,0.499,0.0776,0.138,-0.0131,0.00566
CCTAATC,0.0064,-0.00652,0.0276,-0.153,-0.000636,-0.599,-0.115,-0.144,-0.055,-0.0308
GGCCAGG,0.14,0.107,0.487,1.25,-0.0285,1.58,0.206,0.18,0.0467,0.179
TTCCGTC,0.0808,-0.191,0.11,-0.229,-0.0569,-0.628,-0.0165,-0.234,-0.15,-0.156
AAGGATT,0.0135,-0.0996,0.113,1.37,-0.13,1.66,-0.022,-0.00189,-0.139,0.0279
GACTACT,-2.78,-2.54,-0.379,-2.25,-0.213,0.623,-2.73,-0.116,0.145,0.141
GCAAGAA,-0.0186,0.0241,-0.00943,0.399,0.0997,-0.274,0.107,-0.00598,-0.0437,0.0241
GGATGCC,-0.0536,-0.129,0.24,0.83,-0.0482,0.787,0.0446,-0.0299,-0.106,-0.0358
TTTGGTA,0.0671,0.0183,0.21,-0.193,0.103,0.0486,-0.12,-0.0227,0.0667,0.0269
CTCGCCA,-0.133,-0.0796,-0.0452,-0.849,0.0974,-0.498,-0.143,-0.0846,-0.1,-0.0632
